The values below come from the antibiotic and cytotoxicity screens of Wong et al. (2023).

This is one part of the list.

Experiment [1] has as its system HSkMC (human skeletal muscle cells). Nature of the experiment: cytotoxicity call (relative viability < 0.9). As to conditions: 10 µM.
Experiment [2] deals with HepG2. Nature of the experiment: cytotoxicity call (relative viability < 0.9). The note with it: 10 µM.
Experiment [3] has as its system S. aureus RN4220. As to the kind of experiment: growth inhibition call (relative growth <= 0.2). As to conditions: 50 µM.

As to `C[C@H]1CN([C@@H](C)CO)C(=O)c2cc(NS(=O)(=O)c3cccs3)ccc2O[C@@H]1CN(C)Cc1ccc(-c2ccccc2)cc1`, the cytotoxicity call in experiment [1] and in experiment [2] was “inactive” throughout. Moreover, the growth inhibition call in experiment [3] was “inactive”.
As for `C[N+](C)(C)C[C@@H](O)CC(=O)O`, the cytotoxicity call in experiment [1] and in experiment [2] was “inactive” throughout. The growth inhibition call in experiment [3] was “inactive”.
As to `Cc1noc(C)c1NC(=O)N(C)C[C@H]1Oc2c(NC(=O)C3CCOCC3)cccc2C(=O)N([C@@H](C)CO)C[C@H]1C`, the cytotoxicity call in experiment [1] and in experiment [2] was “inactive” in each case. Also, the growth inhibition call in experiment [3] was “inactive”.
As to `Cc1onc(NS(=O)(=O)c2ccccc2-c2ccc(-c3ncco3)cc2CN(C)C(=O)CC(C)(C)C)c1C`, the cytotoxicity call in experiment [1] and in experiment [2] was “inactive” throughout. Besides, the growth inhibition call in experiment [3] is “inactive”.
Regarding `C[C@@H]1CCCCO[C@H](CN(C)S(=O)(=O)c2ccc(F)cc2)[C@@H](C)CN([C@H](C)CO)C(=O)c2cc(NC(=O)Nc3ccc(F)cc3)ccc2O1`, the cytotoxicity call in experiment [1] and in experiment [2] was “inactive” throughout. Moreover, the growth inhibition call in experiment [3] was “inactive”.
On to `Cc1noc(C)c1S(=O)(=O)Nc1ccc2c(c1)C(=O)N([C@@H](C)CO)C[C@H](C)[C@@H](CN(C)Cc1ccc(-c3ccccc3)cc1)O2`, for which the cytotoxicity call in experiment [1] and in experiment [2] was “inactive” each time. Moreover, the growth inhibition call in experiment [3] was “inactive”.
For `Cc1noc(C)c1NC(=O)Nc1ccc2c(c1)C(=O)N([C@@H](C)CO)C[C@H](C)[C@H](CN(C)C(=O)Nc1ccc(C(F)(F)F)cc1)OCCCC[C@H](C)O2`, the cytotoxicity call in experiment [1] and in experiment [2] was “inactive” in each case. Also, in experiment [3], the growth inhibition call is “inactive”.
Take `C[C@H](CO)N1C[C@H](C)[C@H](CN(C)Cc2ccc(Cl)c(Cl)c2)Oc2c(NC(=O)Nc3ccc4c(c3)OCO4)cccc2C1=O`: the cytotoxicity call in experiment [1] and in experiment [2] was “inactive” throughout. In addition, the growth inhibition call in experiment [3] is “inactive”.
On to `COc1ccc(NC(=O)Nc2ccc3c(c2)[C@H]2C[C@@H](CC(=O)NCc4ccccn4)O[C@H](CO)[C@H]2O3)cc1`, for which the cytotoxicity call in experiment [1] and in experiment [2] was “inactive” throughout. Further, the growth inhibition call in experiment [3] is “inactive”.
Turning to `C[C@@H]1CN([C@@H](C)CO)C(=O)Cc2cc(NC(=O)Nc3ccc(C(F)(F)F)cc3)ccc2O[C@@H]1CN(C)Cc1ccccc1`, the cytotoxicity call in experiment [1] and in experiment [2] was “active” in each case. The growth inhibition call in experiment [3] was “inactive”.
In the case of `C[C@@H]1CCCCO[C@H](CN(C)CC2CCCCC2)[C@H](C)CN([C@H](C)CO)C(=O)c2cc(NC(=O)Nc3cccc4ccccc34)ccc2O1`, the cytotoxicity call in experiment [1] and in experiment [2] was “active” in each case. Also, the growth inhibition call in experiment [3] was “inactive”.
`Cc1ccc(C(=O)Nc2ccc(Nc3ccccc3)cc2)c(C)c1`: the cytotoxicity call in experiment [1] and in experiment [2] was “inactive” throughout. Moreover, the growth inhibition call in experiment [3] was “inactive”.
As to `COc1cccc(S(=O)(=O)N[C@H]2CC[C@H](CCn3cc(-c4ccccc4OC)nn3)O[C@@H]2CO)c1`, the cytotoxicity call in experiment [1] and in experiment [2] was “inactive” each time. The growth inhibition call in experiment [3] is “inactive”.
Turning to `COC(=O)Nc1nc2cc(C(=O)c3ccc(F)cc3)ccc2[nH]1`, in experiment [1], the cytotoxicity call is “inactive”. Besides, the cytotoxicity call in experiment [2] was “active”. For the same molecule, the growth inhibition call in experiment [3] is “inactive”.
Turning to `C[C@@H]1CN([C@@H](C)CO)C(=O)CCCn2nncc2CO[C@@H]1CN(C)S(=O)(=O)c1ccc2ccccc2c1`, the cytotoxicity call in experiment [1] and in experiment [2] was “inactive” in each case. For the same molecule, the growth inhibition call in experiment [3] is “inactive”.
Regarding `CO[C@@H]1CN(C)C(=O)c2cc(NC(=O)C3CC3)ccc2OC[C@@H](C)N(C(=O)C2CCOCC2)C[C@H]1C`, the cytotoxicity call in experiment [1] and in experiment [2] was “inactive” throughout. Besides, the growth inhibition call in experiment [3] was “inactive”.
Take `C[C@@H]1CN([C@H](C)CO)C(=O)c2cc(NC(=O)CCCN(C)C)ccc2O[C@@H]1CN(C)S(=O)(=O)c1ccccc1`: the cytotoxicity call in experiment [1] and in experiment [2] was “inactive” throughout. Also, in experiment [3], the growth inhibition call was “inactive”.
For `C[C@@H]1CN([C@H](C)CO)C(=O)c2cc(NC(=O)c3ccncc3)ccc2O[C@@H](C)CCCCO[C@H]1CN(C)S(=O)(=O)c1ccc(Cl)cc1`, in experiment [1], the cytotoxicity call is “inactive”. Further, the cytotoxicity call in experiment [2] is “active”. The growth inhibition call in experiment [3] was “inactive”.
Take `N=C(N=C(N)N)N1CCOCC1`: the cytotoxicity call in experiment [1] and in experiment [2] was “inactive” in each case. In experiment [3], the growth inhibition call was “inactive”.
With `C[C@@H]1CN([C@@H](C)CO)C(=O)c2cccc(NC(=O)Nc3ccccc3)c2O[C@H]1CN(C)S(=O)(=O)c1cn(C)cn1`, the cytotoxicity call in experiment [1] and in experiment [2] was “inactive” in each case. Also, the growth inhibition call in experiment [3] was “inactive”.
With `Cc1ccc(S(=O)(=O)n2cc([C@H]3CC(=O)N(C(=O)OCc4ccccc4)[C@H]3C(=O)Nc3cccc4cccnc34)c3ccccc32)cc1`, the cytotoxicity call in experiment [1] and in experiment [2] was “inactive” throughout. Also, the growth inhibition call in experiment [3] is “inactive”.
Turning to `C[C@H](CO)N1C[C@H](C)[C@@H](CN(C)Cc2ccc(C(F)(F)F)cc2)Oc2ccc(NC(=O)Nc3cccc4ccccc34)cc2C1=O`, the cytotoxicity call in experiment [1] and in experiment [2] was “inactive” in each case. The growth inhibition call in experiment [3] was “inactive”.
As to `COc1ccc(NC(=O)Nc2ccc3c(c2)CC(=O)N([C@@H](C)CO)C[C@@H](C)[C@H](CN(C)Cc2ccc(-c4ccccc4)cc2)O3)cc1`, in experiment [1], the cytotoxicity call is “inactive”. In addition, the cytotoxicity call in experiment [2] was “active”. For the same molecule, the growth inhibition call in experiment [3] is “inactive”.
With `COc1ccc(NC(=O)Nc2cccc3c2O[C@H](CN(C)Cc2ccc(Oc4ccccc4)cc2)[C@@H](C)CN([C@@H](C)CO)C3=O)cc1`, in experiment [1], the cytotoxicity call was “active”. In addition, the cytotoxicity call in experiment [2] is “inactive”. Besides, in experiment [3], the growth inhibition call was “inactive”.
Turning to `C[C@@H]1CN([C@@H](C)CO)C(=O)Cc2cc(NS(=O)(=O)c3cccs3)ccc2O[C@H]1CN(C)CC1CC1`, the cytotoxicity call in experiment [1] and in experiment [2] was “inactive” each time. Further, the growth inhibition call in experiment [3] is “inactive”.
